Measurements as given in ChEMBL document CHEMBL1201862, “PubChem BioAssay data set” (2004).
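Following 48 hours of exposure in 96-well plates, responses at five concentrations were used to interpolate endpoints linearly. At the GI50, growth is halved.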 Active and inactive are the calls of the source. No stated cut-off is given here; in the data, active = GI50 up to about 1.1 µM and inactive = higher.

What follows are compounds tested on NCI-H322M (assay: NCI tumour cell line growth inhibition, 48 h).
`CCOC(=O)C1=C(Nc2ccccc2)SCC1=O` was tested, and the GI50 was inactive: > 100 µM. With `Cc1c(OCc2ccccc2)c(=O)ccn1CCc1c[nH]c2ccccc12` the GI50 was inactive: > 100 µM. `CC(C)C1C(=O)N(c2c(F)c(F)c(F)c(F)c2F)C(=S)N1CC[S+]([O-])c1ccccc1` (configuration not stated) was tested, and the GI50 was inactive: 17 µM. With `O=C(CCc1nnc(S)[nH]1)Nc1cccc(C(F)(F)F)c1` the GI50 was inactive: > 100 µM. With `Cc1oc2nc(N(C)C)n3c(C)nnc3c2c1C` the GI50 was inactive: > 100 µM. For `Cn1c(=O)c2c(nc(Nc3ccc(Cl)cc3)n3c(=O)n(-c4ccccc4)c(=O)n23)n(C)c1=O`, the GI50 was inactive: > 100 µM. `CC(=O)c1ccccc1NS(=O)(=O)c1ccc2nc(C)n(NS(=O)(=O)c3ccccc3C(C)=O)c(=O)c2c1` was tested, and the GI50 was inactive: > 100 µM. In the case of `O=c1[nH]c2ccc([N+](=O)[O-])cc2nc1/C(=N/Nc1ccccc1)C(O)c1ccco1` (configuration not stated), the GI50 is reported as inactive: 44 µM. In the case of `COc1c2c(c(O)c3c4c(c(C)cc13)C1OC3(C(OC)OC5CC(C)(O)C(OC6CC(C)(O)C(O)C(C)O6)C(C)O5)OC1C(OC)(O4)C31CO1)C(=O)C(O)CC2OC1CC(C)(O)C(OC(C)=O)C(C)O1` (configuration not stated), the GI50 is reported as active: < 0.01 µM. With `CSC1=C(C)C(/C=N/Nc2ccc([N+](=O)[O-])cc2)=C(C)N(c2ccccc2)S1(=O)=O` the GI50 was inactive: > 100 µM. `COc1ncnc2c1cnn2Cc1cn(CCCCO)nn1` was tested, and the GI50 was inactive: > 100 µM. With `Cc1nc2ccccc2n1Cc1nnc2n1N=C(c1ccccc1)CS2` the GI50 was inactive: 31.9 µM. With `CC1=C(C(=O)NNS(=O)(=O)c2ccc(C)cc2)CC(C(=O)NNS(=O)(=O)c2ccc(C)cc2)=C(C)N1` the GI50 was inactive: > 100 µM. In the case of `CCN(CC)CCSc1nc(-c2c[nH]c3nc(C)ccc3c2=O)n[nH]1`, the GI50 is reported as inactive: > 100 µM. In the case of `N#CCc1c(F)c(F)c(F)c(F)c1F`, the GI50 is reported as inactive: > 100 µM. With `CSC(=N)NNC(=O)CCC(=O)Nc1ccccc1C(F)(F)F` the GI50 was inactive: > 100 µM. For `CCOC(=O)C1(C(C)=O)OC(=O)c2cnccc21` (configuration not stated), the GI50 was inactive: > 100 µM. For `C=C(C)[C@@H]1CC[C@@H](C)[C@](O)([C@@H]2C[C@@H]([C@H](COC(=O)c3ccccc3)OC(=O)c3ccccc3)OC2=O)C1`, the GI50 was inactive: > 100 µM. For `COc1ccc2c(-c3cc4ccccc4o3)cc(=O)oc2c1`, the GI50 was inactive: 38.7 µM. `CCOC(=O)C(=O)Nc1ccccc1CC` was tested, and the GI50 was inactive: > 100 µM. For `O=C1OC(c2ccccc2)=N/C1=C\c1ccc(Oc2ccc(Cl)c(Cl)c2)cc1`, the GI50 was inactive: > 100 µM. In the case of `NC12Oc3cc(O)cc(O)c3C1(c1ccc(Cl)cc1)c1c(O)cc(O)cc1O2` (configuration not stated), the GI50 is reported as inactive: 71.9 µM. `COC(=O)c1cc(CNCCc2c[nH]c3ccccc23)on1` was tested, and the GI50 was inactive: > 100 µM. `CC(=O)Nc1cc2cc(N)ccc2oc1=O` was tested, and the GI50 was inactive: > 100 µM. In the case of `O=C(O)CCSC(=S)Nc1cccc(F)c1`, the GI50 is reported as inactive: 88.3 µM. `CCOC(=O)c1nc2ccc(C(F)(F)F)cc2nc1NCc1ccc(Cl)c(Cl)c1` was tested, and the GI50 was inactive: 45.8 µM. For `CC12CC3(C)CC(C)(C1)CC(N=[N+]=[N-])(C2)C3`, the GI50 was inactive: > 100 µM. In the case of `N#CC(C(=O)CCC(=O)Nc1cccc(C(F)(F)F)c1)c1ccccc1` (configuration not stated), the GI50 is reported as inactive: > 100 µM. For `CCCCCCCCCCCC(=O)N(CCCCCCCCC)CC(O)C(O)C(OC1OC(CO)C(O)C(O)C1O)C(O)CO` (configuration not stated), the GI50 was inactive: 20.9 µM. `CCOC(=O)CCSS(=O)(=O)C(F)(F)F` was tested, and the GI50 was inactive: > 100 µM. In the case of `NC(=O)CCC(NC(=O)c1c2ccccc2nc2ccccc12)C(=O)O` (configuration not stated), the GI50 is reported as inactive: > 100 µM. With `C[n+]1ccc2[nH]c3ccccc3c2c1` the GI50 was inactive: > 100 µM. `O=C(Nc1cccc(C(=O)NCCCO)c1)/C(=C/c1ccccc1)NC(=O)c1ccccc1` was tested, and the GI50 was inactive: > 100 µM. With `CCN1/C(=C/C#C/C(C)=C\c2sc3ccc(Cl)cc3[n+]2CC)Sc2ccc(Cl)cc21` the GI50 was inactive: 2 µM. With `CSc1nc(NC2OC(COC(C)=O)C(OC(C)=O)C(OC(C)=O)C2OC(C)=O)c2c(OC(C)=O)c(C)c(=O)oc2n1` (configuration not stated) the GI50 was inactive: > 100 µM. In the case of `CCOC(=O)c1c(SCCN(CC)CC)n(-c2ccccc2)c(=S)n(-c2ccccc2)c1=O`, the GI50 is reported as inactive: 17.6 µM. `Cc1sc2c(c1C)C(=O)c1cccn1-2` was tested, and the GI50 was inactive: > 100 µM. `N#CC(C#N)=Cc1c[nH]c(=O)[nH]c1=O` was tested, and the GI50 was inactive: > 100 µM. With `CCN1CCCCC(=N\O)/C(=N/O)CCCC1` the GI50 was inactive: > 100 µM. With `O=C(NCC(=O)N1CCOC1=O)OCc1ccccc1` the GI50 was inactive: > 100 µM. In the case of `CC(C)(C)/N=c1/n(C(C)(C)C)oc(=O)n1C(C)(C)C`, the GI50 is reported as inactive: > 100 µM. With `COc1ccccc1C1C(Cl)C(=O)N1n1cnc2ccccc2c1=O` (configuration not stated) the GI50 was inactive: > 100 µM. `CN(C)S(=O)(=O)n1cnc(CO)c1` was tested, and the GI50 was inactive: > 100 µM. In the case of `CCCC(=O)Nc1cc(/C=C/C(=O)N2CC(CCl)c3c2cc(OCc2ccccc2)c2[nH]cc(C)c32)n(C)c1` (configuration not stated), the GI50 is reported as active: 0.138 µM. In the case of `N#C/C(C(=O)Nc1ccc(Cl)cc1)=C(/N)N1CCOCC1`, the GI50 is reported as inactive: > 100 µM. In the case of `CCc1ccccc1NC(=O)CCc1n[nH]c(=S)o1`, the GI50 is reported as inactive: > 100 µM. `COc1cc(/C=C/C(=O)C(C)(C)C)cc(OC)c1OC` was tested, and the GI50 was inactive: 29.4 µM. `C[C@H](C(=O)O)C(=O)NC(=O)N(Cc1ccccc1)N=O` was tested, and the GI50 was inactive: > 100 µM. With `CC1(C)CCC2(C(=O)O)C(O)CC3(C)C(=CCC4C5(C)CCC(OC6OCC(O)C(O)C6OC6OCC(O)C(O)C6OC6OCC(O)C(OC7OC(CO)C(O)C(O)C7O)C6O)C(C)(C)C5CCC43C)C2C1` (configuration not stated) the GI50 was inactive: 34.7 µM. With `CSC1=N/C(=C\c2ccccc2)C(=O)N1CN1CCCCC1` the GI50 was inactive: > 100 µM. With `COC(=O)C1CC=C(SC(=O)c2ccccc2)N1C(=O)c1ccccc1` (configuration not stated) the GI50 was inactive: > 100 µM. `CC1=NOC(C)(O)/C1=N/O` (configuration not stated) was tested, and the GI50 was inactive: > 100 µM. For `O=C1/C(=C\c2cccc(Oc3ccccc3)c2)SC(c2ccccc2)N1Cc1ccccc1` (configuration not stated), the GI50 was inactive: 55.5 µM. For `C[Si](C)(C)/C(I)=C/CO`, the GI50 was inactive: 28.5 µM. In the case of `COC(=O)C12CC3CC(CC(C(=O)O)(C3)C1)C2`, the GI50 is reported as inactive: > 100 µM. For `C[C@]12C[C@H](O)[C@H]3[C@@H](CCC4=CC(=O)CC[C@@]43C)[C@@H]1CC[C@@H]2c1csc(-c2ccccc2)n1`, the GI50 was inactive: 49.3 µM. `COc1ccc2nc3cc(Cl)ccc3c(Sc3ccc(N)cc3)c2c1` was tested, and the GI50 was inactive: 17.7 µM. In the case of `O=C(O)CC(Nc1ccccc1)C(=O)O` (configuration not stated), the GI50 is reported as inactive: > 100 µM. For `CC(=O)CC(=O)ON(C)C(=O)Cc1ccccc1`, the GI50 was inactive: > 100 µM. `CO[C@H]1SC[C@H](OC(C)=O)[C@H](OC(C)=O)[C@H]1OC(C)=O` was tested, and the GI50 was inactive: > 100 µM. For `CC(C)Oc1c(O)c2c3c(oc(=O)n3C=CC2c2ccccc2F)c1OC(C)C` (configuration not stated), the GI50 was inactive: 35.6 µM. For `N#Cc1c(=O)c2cc([N+](=O)[O-])ccc2n2c1[nH]c1ccccc12`, the GI50 was inactive: 3.66 µM. For `O=C1CN=C(c2ccccc2)c2ccncc2N1`, the GI50 was inactive: > 100 µM. In the case of `CCCCc1ccc(N2C(=O)c3cc([N+](=O)[O-])cnc3S2(=O)=O)cc1`, the GI50 is reported as inactive: 44.9 µM. With `CC(C)(C)OC(=O)NC(Cc1ccccc1)C(=O)N[C@H]1c2ccsc2/C(=N/O)[C@H]1O` (some centres not stated) the GI50 was inactive: > 100 µM. In the case of `CC(=O)N(C(C)=O)n1c(Cc2ccc(C)cc2)nn(C(C)=O)c1=O`, the GI50 is reported as inactive: > 100 µM. With `CCOc1ccc2nc(NC(=O)C(=O)C3C(=O)C(CC4C(=O)c5ccccc5C4=O)C(=O)CC3(C)C)sc2c1` (configuration not stated) the GI50 was inactive: > 100 µM. For `Cc1ccc(C2=Nc3c(N)nc(N)nc3NC(c3ccccc3)C2)cc1` (configuration not stated), the GI50 was inactive: 16.4 µM. `NC1=C(C(=O)O)C(=O)C(Nc2c(O)cccc2C(=O)O)=CC1=O` was tested, and the GI50 was inactive: 1.15 µM. With `CC(NC(=O)C(C)NC(=O)C(N)CCP(C)(=O)O)C(=O)O` (configuration not stated) the GI50 was inactive: > 100 µM. `O=C1CC2(CCC(O)(c3ccccc3)C(C(=O)c3ccccc3)C2)C(=O)c2ccccc2N1` (configuration not stated) was tested, and the GI50 was inactive: > 100 µM. With `Cc1ccc(C(=O)N/N=C(\N=N\c2cccc([N+](=O)[O-])c2)c2ccc(N(C)C)cc2)cc1` the GI50 was inactive: 57.5 µM. In the case of `C1=Nc2ccccc2Cn2nncc21`, the GI50 is reported as inactive: > 100 µM. For `CC(C)=CCC/C(C)=C/CCC(C(=O)COCc1ccccc1)P1(=O)OC(C)(C)CN1C(C)(C)C` (configuration not stated), the GI50 was inactive: 96.4 µM. In the case of `CCOC(=O)c1ccc(/N=C2\SC(=S)N(c3ccc(F)cc3)\C2=N/c2ccc(C(=O)OCC)cc2)cc1`, the GI50 is reported as inactive: > 100 µM. For `CCCCCCCCC[C@@H]1C[C@@H]2CCC3C(C(=O)OC)=C(C)N=C(N1)N32` (some centres not stated), the GI50 was inactive: 14.6 µM. With `C#Cc1c(C)c(/C=C/C(C)=C/C=C/C(C)=C/C(=O)OC)n(C)c1C` the GI50 was inactive: > 100 µM. With `CCOC(=O)c1c(CN2CCNCC2)nc2ccccc2c1-c1ccccc1` the GI50 was inactive: 15 µM. `COc1ccc(-c2csc3c2[N+]2(C)C=CC=C2C3N2CCCC2)cc1` (configuration not stated) was tested, and the GI50 was inactive: 55.2 µM. `O=c1cc(N2CCCC2)[nH]c(=O)n1-c1cccc(C(F)(F)F)c1` was tested, and the GI50 was inactive: > 100 µM. In the case of `O=C1C=CC(=O)C1(Br)Br`, the GI50 is reported as inactive: 13.3 µM. For `CC(=O)Nc1ccc(SC#N)c2c(NC(C)=O)cccc12`, the GI50 was inactive: > 100 µM. `Cc1nc(-c2cccnc2)sc1C(=O)CC(=O)C(=O)Nc1cccc(NC(=O)C(=O)CC(=O)c2sc(-c3cccnc3)nc2C)n1` was tested, and the GI50 was inactive: > 100 µM. `CCOC(=O)[N-]c1ccc(S(=O)(=O)[O+](C)CCl)cc1.CCOC(=O)[N-]c1ccc(S(=O)(=O)[O+](C)CCl)cc1.NC(=O)N=O.NC(=O)OCCCl` was tested, and the GI50 was inactive: > 100 µM. `CN(CCCCCl)P(=O)(OCc1ccc([N+](=O)[O-])o1)OC[C@H]1O[C@@H](n2cc(F)c(=O)[nH]c2=O)C[C@@H]1O` (some centres not stated) was tested, and the GI50 was inactive: 4.39 µM. In the case of `COc1cc(CCc2ccncc2)cc(OC)c1OC`, the GI50 is reported as inactive: > 100 µM. For `NC1=NC(=O)[C@H](Cc2c[nH]c3ccccc23)N1C(=O)OCc1ccccc1`, the GI50 was inactive: > 100 µM. With `Cc1occc1C(=S)Nc1ccc(Cl)c(C(=O)OCC(C)C)c1` the GI50 was inactive: 21.2 µM. For `O=C(O)c1cnc2c(ccc3ncc(C(=O)O)c(O)c32)c1O`, the GI50 was inactive: > 100 µM. In the case of `COc1ccc(-c2cc(=O)c3c(OC)c(O)c(OC)cc3o2)cc1`, the GI50 is reported as inactive: 42.8 µM. With `CC1(C)CCC2=C(O1)c1ccccc1/C(=N/c1ccc([N+](=O)[O-])cc1)C2=O` the GI50 was inactive: 15.1 µM. `COc1cc(CNc2ccc(SC)cc2)cc(OC)c1OC` was tested, and the GI50 was inactive: 17.5 µM.
